Experimental data: the supplement of paper PMC7826260
The list shows a part of the results. Viral Rep nickase domains cut single-stranded DNA in vitro at 3 µM enzyme and 37 °C for 1 h; the strands have 90 letters, of which the middle is given. A value is the log2 ratio of uncut reads to the pool without enzyme; strong cutting gives strongly negative numbers. There is no active / inactive call. Shares of all reads are compared; uncut strands gain when others are lost, and binding without cutting may add a little.

Experiments:
Test in all cases: uncleaved DNA left, log2 of reads against the no-enzyme library (log2 ratio); higher = less cleavage (more negative = more Rep cleavage of the k-mer); sequences stand for … in CTCGTCCG…ACCGGAGA
[1] = test system: T1, Rep nickase domain of Muscovy duck circovirus
T1 sequence (Rep 1-111, printed without the tag): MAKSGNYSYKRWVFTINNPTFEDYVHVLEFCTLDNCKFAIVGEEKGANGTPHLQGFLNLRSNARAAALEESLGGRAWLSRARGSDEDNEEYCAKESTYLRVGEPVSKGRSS
Method: (§1)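 A pool of 90-nt single-stranded DNAs with seven random bases just before the constant AC of the nick site (name = the seven bases) was cut by 3 µM recombinant His6-SUMO-tagged Rep nickase domain (300 nM DNA, 50 mM HEPES pH 8.0, 50 mM NaCl, 1 mM MnCl2, 1 h, 37 °C, three replicates). Uncut DNA was amplified and sequenced.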

[2] = test system: T2, Rep nickase domain of banana bunchy top virus
T2 sequence (Rep 1-94, printed without the tag): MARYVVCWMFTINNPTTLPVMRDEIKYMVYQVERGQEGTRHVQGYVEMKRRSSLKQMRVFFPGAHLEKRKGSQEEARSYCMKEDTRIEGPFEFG
Method: as §1

[3] = test system: T3, Rep nickase domain of cabbage leaf curl virus
T3 sequence (Rep 1-116, printed without the tag): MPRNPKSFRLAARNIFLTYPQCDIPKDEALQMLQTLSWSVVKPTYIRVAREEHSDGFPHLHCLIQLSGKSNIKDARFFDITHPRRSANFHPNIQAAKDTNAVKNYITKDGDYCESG
Method: as §1

[4] = test system: T4, Rep nickase domain of chickpea chlorotic dwarf virus
T4 sequence (Rep 1-124, printed without the tag): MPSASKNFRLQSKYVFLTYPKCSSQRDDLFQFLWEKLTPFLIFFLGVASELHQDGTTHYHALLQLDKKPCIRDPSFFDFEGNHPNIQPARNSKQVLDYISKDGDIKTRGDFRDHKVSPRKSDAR
Method: as §1

[5] = test system: T5, Rep nickase domain of faba bean necrotic yellows virus
T5 sequence (Rep 1-98, printed without the tag): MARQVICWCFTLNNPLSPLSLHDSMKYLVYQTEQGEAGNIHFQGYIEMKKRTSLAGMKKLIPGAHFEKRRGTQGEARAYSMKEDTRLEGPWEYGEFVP
Method: as §1

[6] = test system: T6, Rep nickase domain of maize striate mosaic virus
T6 sequence (Rep 1-117, printed without the tag): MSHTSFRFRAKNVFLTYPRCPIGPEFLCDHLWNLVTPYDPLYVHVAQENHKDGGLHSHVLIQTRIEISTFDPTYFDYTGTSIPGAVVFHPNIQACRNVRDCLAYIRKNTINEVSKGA
Method: as §1

[7] = test system: T7, Rep nickase domain of porcine circovirus 2
T7 sequence (Rep 2-116, printed without the tag): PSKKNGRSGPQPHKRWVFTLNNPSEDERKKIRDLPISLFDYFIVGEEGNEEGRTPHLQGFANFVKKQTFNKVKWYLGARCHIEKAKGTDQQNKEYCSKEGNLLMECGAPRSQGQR
Method: as §1

[8] = test system: T8, Rep nickase domain of tomato golden mosaic virus
T8 sequence (Rep 1-124, printed without the tag): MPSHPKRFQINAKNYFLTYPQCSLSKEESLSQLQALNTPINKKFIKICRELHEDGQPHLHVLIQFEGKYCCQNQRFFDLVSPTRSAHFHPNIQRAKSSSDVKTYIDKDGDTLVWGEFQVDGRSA
Method: as §1

[9] = test system: T9, Rep nickase domain of tomato yellow leaf curl virus
T9 sequence (Rep 1-136, printed without the tag): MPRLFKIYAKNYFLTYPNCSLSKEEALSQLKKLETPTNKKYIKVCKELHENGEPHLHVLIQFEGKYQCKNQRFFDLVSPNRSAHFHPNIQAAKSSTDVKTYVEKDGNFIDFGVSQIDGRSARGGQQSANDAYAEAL
Method: as §1

[10] = test system: T10, Rep nickase domain of wheat dwarf virus
T10 sequence (Rep 1-137, printed without the tag): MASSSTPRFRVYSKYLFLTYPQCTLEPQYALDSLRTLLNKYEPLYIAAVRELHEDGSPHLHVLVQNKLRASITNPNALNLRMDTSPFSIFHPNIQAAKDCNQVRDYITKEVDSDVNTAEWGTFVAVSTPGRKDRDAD
Method: as §1

Sequence	uncleaved DNA left (log2) [1]	uncleaved DNA left (log2) [2]	uncleaved DNA left (log2) [3]	uncleaved DNA left (log2) [4]	uncleaved DNA left (log2) [5]	uncleaved DNA left (log2) [6]	uncleaved DNA left (log2) [7]	uncleaved DNA left (log2) [8]	uncleaved DNA left (log2) [9]	uncleaved DNA left (log2) [10]
CATGCAG	0.0575	-0.0971	-0.738	-0.165	0.0651	-0.795	0.14	-0.00889	0.0404	-0.109
GGTCCCC	-0.0252	-0.0223	0.378	0.886	-0.0697	1.47	-0.215	-0.155	0.0965	0.104
AGAACCG	-0.117	-0.0769	-0.171	0.197	-0.0397	-0.61	0.0631	-0.02	-0.115	0.0324
TCGACCA	0.0777	0.0779	0.12	-0.0209	0.0831	0.119	-0.00434	-0.0229	0.134	0.136
AACGCCT	0.0141	-0.00782	-0.336	-2.48	0.109	-0.128	-0.263	0.0792	0.0178	0.0621
AAACTGG	0.0969	0.147	0.141	0.232	0.18	-0.224	0.243	0.22	0.144	0.337
TAGATGG	0.152	-0.0391	-0.0162	0.38	0.0836	-0.0359	0.0267	-0.0147	-0.0537	-0.0135
GACGAAT	-0.0616	-0.00775	0.214	0.138	-0.129	0.955	-0.0329	0.0229	-0.212	0.0561
ATGATTT	-0.107	-0.337	-0.18	-2.38	-0.159	-0.513	-1.73	-0.187	-0.188	-0.315
TATCGAG	0.0027	-0.0953	-0.0353	-0.0872	0.00633	-0.921	0.114	-0.0695	-0.0446	-0.0216
TCCCGCC	-0.0747	-0.311	-0.0117	-0.3	-0.0695	-0.743	-0.0142	-0.172	-0.0888	-0.132
TACTGGC	-0.0276	-0.163	-0.331	-0.285	-0.0859	-0.565	-0.0895	-0.0883	-0.0991	-0.0436
CTCTAAT	-2.37	-0.264	-0.12	-1.34	-0.00225	-0.57	-3.73	-0.0402	-0.124	-0.0987
CACTCCC	0.0839	-0.0689	0.0162	-0.644	-0.0266	0.0313	-1.21	-0.0976	-0.0141	-0.00877
CTACCTG	-0.0753	-0.0381	-0.213	-1.17	-0.0687	0.0399	-0.263	-0.169	-0.0997	-0.0254
ATAGATG	0.0633	0.0734	0.125	0.804	0.0168	0.572	0.187	0.127	0.0131	0.0572

Sequence	uncleaved DNA left (log2) [1]	uncleaved DNA left (log2) [2]	uncleaved DNA left (log2) [3]	uncleaved DNA left (log2) [4]	uncleaved DNA left (log2) [5]	uncleaved DNA left (log2) [6]	uncleaved DNA left (log2) [7]	uncleaved DNA left (log2) [8]	uncleaved DNA left (log2) [9]	uncleaved DNA left (log2) [10]
GCACTGA	0.0478	0.166	0.0338	0.519	-0.0936	0.841	0.133	0.0971	-0.0374	0.00266
GCACCGG	-0.078	-0.0365	0.405	1.23	-0.0814	1.53	-0.0247	0.0655	-0.0245	-0.0546
TTAAGGC	0.113	0.105	-0.726	-2.04	0.034	0.304	0.108	0.0855	0.0725	-0.0349
TCAACGC	0.0841	0.0316	-0.0708	-0.77	0.0876	-0.759	0.145	0.116	-0.0848	-0.0611
CCCTTTC	0.0612	-0.0592	0.309	0.0409	0.078	-0.358	-0.0319	-0.0292	0.0499	0.0611
TCGAAGC	0.0209	-0.00301	-0.0604	-0.358	-0.108	-1.07	0.0675	-0.0425	-0.0651	-0.0561
GCTGGGT	0.095	-0.0333	0.182	0.549	-0.0835	0.798	0.0374	0.167	0.0479	-0.0418
CATCTAT	-0.0238	-0.0316	-0.188	-1.58	-0.0948	-0.747	-0.409	-0.185	-0.119	-0.0779
GACAGAG	-0.0354	0.0885	-0.0962	0.179	-0.0973	-0.679	0.067	0.0254	-0.014	-0.0831
TCGGGCG	0.0635	0.0648	-0.631	-0.261	0.109	-0.817	0.107	0.0868	0.123	-0.0802
TGAAGGG	0.00525	0.0685	0.12	0.266	0.0748	-0.312	0.173	0.0938	-0.00442	-0.00229
TAGTTCA	-0.433	-0.52	-0.22	-2.49	-1.27	-0.296	-3.36	0.0245	0.0643	-0.0502
AGTTTTC	0.0396	0.00181	0.103	0.0414	-0.0131	-0.192	-0.116	0.102	0.00438	0.0822
TGTGGAC	0.0722	0.0823	0.854	1.9	-0.0549	2.22	0.2	0.131	0.11	0.166
TTAGCTT	0.00384	0.129	-0.0742	-1.67	0.00363	0.163	-0.0968	0.0321	-0.00962	-0.0275
